Reference: article PMC4199508
These are yes or no findings as the source states them, for the method shown. Binding seen in cells or lysates may run through a third protein. Some binding calls cover weakened binding; strength is not graded here. Sequences can lack the tags named with a protein.

Legend:
[1] = molecular target: T1, Tpz1-W498R,I501R (myc-tagged, expressed in fission yeast) (Schizosaccharomyces pombe) (UniProt O14246); assay: co-IP; fission yeast cell extracts; lysis and wash buffer 50 mM Tris pH 8.0, 150 mM NaCl, 10% glycerol, 5 mM EDTA, 0.5% NP40; IP with anti-myc or anti-FLAG and Dynabeads Protein G, western blot; Tpz1-Pot1 also in ccq1Δ poz1Δ cells (anti-myc IP of Tpz1-myc)
T1 sequence: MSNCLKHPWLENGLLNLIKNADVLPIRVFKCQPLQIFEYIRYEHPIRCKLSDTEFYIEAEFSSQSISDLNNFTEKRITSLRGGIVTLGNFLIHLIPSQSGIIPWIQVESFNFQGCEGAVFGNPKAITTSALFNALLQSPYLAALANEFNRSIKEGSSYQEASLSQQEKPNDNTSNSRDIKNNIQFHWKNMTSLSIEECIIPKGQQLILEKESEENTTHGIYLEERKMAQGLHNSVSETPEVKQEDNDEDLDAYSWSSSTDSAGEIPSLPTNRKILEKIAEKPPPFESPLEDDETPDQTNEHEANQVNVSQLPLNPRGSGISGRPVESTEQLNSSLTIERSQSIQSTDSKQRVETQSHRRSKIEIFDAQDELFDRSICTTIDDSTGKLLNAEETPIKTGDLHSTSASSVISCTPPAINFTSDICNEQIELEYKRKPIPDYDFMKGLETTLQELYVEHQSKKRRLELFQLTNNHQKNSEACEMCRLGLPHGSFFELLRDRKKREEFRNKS

[2] = molecular target: T2, Tpz1-Y439R,L445R,L449R (myc-tagged, expressed in fission yeast) (Schizosaccharomyces pombe) (UniProt O14246); assay: as above
T2 sequence: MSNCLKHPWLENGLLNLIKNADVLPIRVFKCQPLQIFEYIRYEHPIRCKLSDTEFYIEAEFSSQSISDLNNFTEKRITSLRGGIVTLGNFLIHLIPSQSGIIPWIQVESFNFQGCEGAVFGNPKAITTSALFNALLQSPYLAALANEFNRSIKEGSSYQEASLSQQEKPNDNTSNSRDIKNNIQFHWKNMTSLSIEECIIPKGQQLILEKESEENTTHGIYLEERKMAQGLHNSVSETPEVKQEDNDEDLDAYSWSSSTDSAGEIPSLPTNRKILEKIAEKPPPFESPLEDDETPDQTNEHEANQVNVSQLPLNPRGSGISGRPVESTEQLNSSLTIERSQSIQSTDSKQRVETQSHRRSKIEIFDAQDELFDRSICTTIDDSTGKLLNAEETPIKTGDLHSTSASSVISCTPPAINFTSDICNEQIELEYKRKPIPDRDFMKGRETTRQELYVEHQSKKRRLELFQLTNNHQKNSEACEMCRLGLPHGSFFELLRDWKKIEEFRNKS

binding [1]: binds
binding [2]: binds
B1: Pot1-FLAG (expressed in fission yeast) (protein, UniProt O13988 1-555)
chain: MGEDVIDSLQLNELLNAGEYKIGELTFQSIRSSQELQKKNTIVNLFGIVKDFTPSRQSLHGTKDWVTTVYLWDPTCDTSSIGLQIHLFSKQGNDLPVIKQVGQPLLLHQITLRSYRDRTQGLSKDQFRYALWPDFSSNSKDTLCPQPMPRLMKTGDKEEQFALLLNKIWDEQTNKHKNGELLSTSSARQNQTGLSYPSVSFSLLSQITPHQRCSFYAQVIKTWYSDKNFTLYVTDYTENELFFPMSPYTSSSRWRGPFGRFSIRCILWDEHDFYCRNYIKEGDYVVMKNVRTKIDHLGYLECILHGDSAKRYNMSIEKVDSEEPELNEIKSRKRLYVQNCQNGIEAVIEKLSQSQQSENPFIAHELKQTSVNEITAHVINEPASLKLTTISTILHAPLQNLLKPRKHRLRVQVVDFWPKSLTQFAVLSQPPSSYVWMFALLVRDVSNVTLPVIFFDSDAAELINSSKIQPCNLADHPQMTLQLKERLFLIWGNLEERIQHHISKGESPTLAAEDVETPWFDIYVKEYIPVIGNTKDHQSLTFLQKRWRGFGTKIV
